Reference: PubChem BioAssay AID485294 (National Center for Advancing Translational Sciences (NCATS), 2010)
About 150 (0.041%) of roughly 370,000 compounds were called active. Inconclusive results, whose numbers are uncertain, are shown with a selection of clear calls. The call rests on the fitted dose curve; in most records, active means well fitted inhibition curve with a large enough effect; inconclusive means small, poorly fitted or top-dose-only effect; inactive means flat fitted curve, though single readings scatter. No potency is given beside an inconclusive call; the fits are too rough.

Molecular target: Beta-lactamase (Escherichia coli (strain K12)) (UniProt P00811)
UniProt P00811, sequence (P00811 whole entry, looked up): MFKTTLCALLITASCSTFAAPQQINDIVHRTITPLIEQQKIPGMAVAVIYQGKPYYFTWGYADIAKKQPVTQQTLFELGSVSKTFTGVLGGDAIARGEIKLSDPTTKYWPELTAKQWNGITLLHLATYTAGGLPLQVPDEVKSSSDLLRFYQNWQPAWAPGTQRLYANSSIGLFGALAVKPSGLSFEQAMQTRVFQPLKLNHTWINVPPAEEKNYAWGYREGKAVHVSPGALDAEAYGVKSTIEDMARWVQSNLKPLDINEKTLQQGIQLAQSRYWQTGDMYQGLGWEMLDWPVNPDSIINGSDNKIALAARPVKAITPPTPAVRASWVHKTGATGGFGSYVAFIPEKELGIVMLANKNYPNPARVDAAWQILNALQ
Test: qHTS Inhibitors of AmpC Beta-Lactamase (assay with detergent); further: nearly all actives have a fitted effect of over 25% in size
Conditions: AmpC hydrolysis of nitrocefin, absorbance 480 nm, 0.01% Triton; series mostly up to 114 µM
In short: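 AmpC (5.3 nM in the dispensed reagent) in 20 mM phosphate pH 7.0 with 0.01% (detergent screen) or 0.0001% Triton X-100 was preincubated with compounds for 15 min at room temperature. Nitrocefin was then added from an 800 uM solution, and hydrolysis was followed at 480 nm.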
Potency means the concentration at half of the fitted maximal effect; tags describe the fitted curve by direction and shape.

Row | SMILES | Potency
1 | Cc1cccc(C(=O)Nc2nnc(S(=O)(=O)N(C)c3ccccc3C)s2)c1 | inactive
2 | CCCCCCc1ccc(O)cc1O | inconclusive [inhibitor, partial curve, poor fit]
3 | Cc1c(Cl)cccc1NC(=S)NCCC(c1ccccc1)c1ccccc1 | inconclusive [inhibitor, full curve]
4 | COc1ccc(C(=O)Cc2cc3ccccc3oc2=O)cc1 | inconclusive [inhibitor, partial curve, poor fit]
5 | Cn1cccc1C(=O)NC1CCCCCC1 | inconclusive [inhibitor, full curve, poor fit]
6 | Cc1nnc(N/N=C/c2ccc(-c3ccc(Br)cc3)o2)n1N | inactive
7 | COc1ccc(C(=O)Nc2ccc3oc(-c4cccc(F)c4)nc3c2)cc1OC | inconclusive [inhibitor, full curve, poor fit]
8 | C=CCSc1nc2c(cnn2-c2ccc(C)c(C)c2)c(=O)[nH]1 | inconclusive [inhibitor, full curve, poor fit]
9 | CC1(C)C(=O)Nc2ccccc2N1C(=O)COC(=O)C12CC3CC(CC(O)(C3)C1)C2 | inconclusive [inhibitor, partial curve, poor fit]
10 | CN1C(=O)c2ccccc2C(C(=O)NCCCN2CCCC2)C1c1c[nH]c2ccccc12 (configuration not stated) | inconclusive [inhibitor, single point]
11 | O=C(Nc1ccc2c(c1)OCO2)C1CCCN1C(=O)Nc1cccc(F)c1 (configuration not stated) | inconclusive [inhibitor, full curve, poor fit]
12 | O=C(N/N=C/c1ccc(OCCCF)cc1)c1ccc(C(F)(F)F)cc1 | inconclusive [inhibitor, partial curve, poor fit]
13 | CCOC(=O)N1CCN(CC(=O)n2c(C)c(C)c3ccccc32)CC1 | inconclusive [inhibitor, full curve, poor fit]
14 | COc1ccc(NC(=O)CSc2nc3sc(C)c(C)c3c(=O)n2Cc2ccco2)cc1 | inconclusive [inhibitor, full curve, poor fit]
15 | Cc1ccnc(NC(=O)c2ccc(OCC3CCCO3)cc2)c1 (configuration not stated) | inconclusive [inhibitor, full curve, poor fit]
16 | Cc1cnc(NC(=O)c2cc3ccccc3o2)s1 | inactive
17 | O=c1[nH]c(O)c(N=Nc2ccc3c(c2)OCCO3)c(=O)[nH]1 | inactive
18 | COc1ccc(CNC(=O)C2CCN(S(=O)(=O)c3ccc4c(c3)CC(C)N4C(=O)C3CC3)CC2)cc1 (configuration not stated) | inactive
19 | CC(C)(C)NC(=O)CN(C(=O)CS(=O)CC(=O)Nc1ccc(F)cc1)c1ccccc1 (configuration not stated) | inconclusive [inhibitor, full curve, poor fit]
20 | CCC(CC)C(=O)Nc1nnc(SCc2cc(=O)n3cccc(C)c3n2)s1 | inactive
21 | COc1cc(NC(=O)CCc2c(C)nc3cc(-c4ccccc4)nn3c2C)cc(OC)c1OC | inactive

Row | SMILES | Potency
22 | CCCCn1c(N)c(S(=O)(=O)c2ccc(C)cc2)c2nc3ccccc3nc21 | inconclusive [inhibitor, partial curve, poor fit]
23 | Cc1nn(C(C)C(=O)N2CCN(c3ccc(Cl)cc3)CC2)c(=O)c2cc3occc3n12 (configuration not stated) | inactive
24 | O=C(CSc1nnc(SCc2ccc(F)cc2)s1)Nc1ccc(C(=O)O)cc1 | inconclusive [inhibitor, partial curve]
25 | CCN(CC)CCNC(=O)c1cn(CC)c2cc(N3CCN(C(=O)c4ccco4)CC3)c(F)cc2c1=O | inactive
26 | COc1ccc(/C=C/C(=O)NCCCN2CCCCCC2)cc1 | inconclusive [inhibitor, single point]
27 | Cc1ccc(-c2nc3cnccn3c2Nc2ccc3c(c2)OCO3)cc1 | inconclusive [inhibitor, full curve]
28 | CCOC(=O)N1CCN(Cc2nc3c(c(=O)n(C)c(=O)n3C)n2CCCc2ccccc2)CC1 | inconclusive [inhibitor, full curve, poor fit]
29 | COc1cccc(N=Cc2c[nH][nH]c2=O)c1 | inconclusive [inhibitor, full curve, poor fit]
30 | CC(=O)CSc1nnc2cc(C)c3cc(C)cc(C)c3n12 | inactive
31 | CCOC(=O)Cc1csc(NC(=O)CSc2nnc(C3CC3)n2C)n1 | inconclusive [inhibitor, full curve, poor fit]
32 | O=C(NC(Cc1c[nH]c2ccccc12)C(=O)Nc1ccc(OC(F)(F)F)cc1)c1cccs1 (configuration not stated) | inactive
33 | O=C(Cn1nnc(-c2ccccc2)n1)N/N=C/c1ccc(-c2ccc(Cl)cc2)o1 | inconclusive [inhibitor, partial curve, poor fit]
34 | CCN(CC)CCCN1C(=O)C(O)=C(C(=O)c2cc3ccccc3o2)C1c1ccccn1 (configuration not stated) | inactive
35 | CCOC(=O)N1CCC(Nc2c(N3CCN(c4cc(Cl)ccc4C)CC3)c(=O)c2=O)CC1 | inconclusive [inhibitor, full curve]
36 | Cc1ccccc1NC(=O)CSc1nc(-c2ccccc2)cc(=O)[nH]1 | inconclusive [inhibitor, partial curve]
37 | CCCN1CCN(C(=O)CCc2nnc3ccc(N4CCN(c5cccc(OC)c5)CC4)nn23)CC1 | inconclusive [inhibitor, partial curve]
38 | COC(=O)CN(C#N)c1nc(SC)nc(N(C)C)n1 | inconclusive [inhibitor, full curve, poor fit]
39 | CCCCCCOc1ccc(OC(=O)c2ccncc2)cc1 | inconclusive [inhibitor, partial curve]
40 | O=C1NC(=O)[C@]2(Cc3ccccc3N3CCN(c4ccccc4)CC32)C(=O)N1Cc1ccccc1 (some centres not stated) | inactive
41 | Cc1ccc(NC(=O)C2CCCN(S(=O)(=O)c3cccc4cccnc34)C2)cc1 (configuration not stated) | inactive
42 | Cc1cc(OCCCC(=O)Nc2cccc(-n3cnnn3)c2)ccc1Cl | inconclusive [inhibitor, partial curve, poor fit]
